# This is one part of the list.
# What was measured:
# Assay in all cases: glycan array binding signal (z-score within array); higher = stronger binding
# Settings in all cases: glycan notation: IUPAC condensed, linker removed
# [1] = target: Fuc(a1-2)Gal(b1-4)GlcNAc(b1-3)Gal(b1-4)GlcNAc(b1-2)Man(a1-3)[Fuc(a1-2)Gal(b1-4)GlcNAc(b1-3)Gal(b1-4)GlcNAc(b1-2)Man(a1-6)]Man(b1-4)GlcNAc(b1-4)GlcNAc
# Procedure, shortened: (§1)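 Columns mapping to the same glycan were averaged after glycan names were converted to IUPAC-condensed notation. The data come from 3228 arrays in the Consortium for Functional Glycomics database, limited to those with an available protein sequence. Binding is reported as a within-array Z-score averaged across arrays of one protein sequence and across linkers.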
# [2] = target: Fuc(a1-2)Gal(b1-4)GlcNAc(b1-3)Gal(b1-4)GlcNAc(b1-3)Gal(b1-4)GlcNAc
# Procedure, shortened: as §1
# [3] = target: Fuc(a1-2)Gal(b1-4)GlcNAc(b1-3)GalNAc
# Procedure, shortened: as §1
# [4] = target: Fuc(a1-2)Gal(b1-4)GlcNAc(b1-3)[Fuc(a1-2)Gal(b1-4)GlcNAc(b1-6)]GalNAc
# Procedure, shortened: as §1
# [5] = target: Fuc(a1-2)Gal(b1-4)GlcNAc(b1-3)[Fuc(a1-3)[Gal(b1-4)]GlcNAc(b1-6)]Gal(b1-4)Glc
# Procedure, shortened: as §1
# [6] = target: Fuc(a1-2)Gal(b1-4)GlcNAc(b1-6)GalNAc
# Procedure, shortened: as §1
# [7] = target: Fuc(a1-2)Gal(b1-4)GlcNAc6S
# Procedure, shortened: as §1
# [8] = target: Fuc(a1-2)Gal(b1-4)[Fuc(a1-3)]GlcNAc
# Procedure, shortened: as §1
# [9] = target: Fuc(a1-2)Gal(b1-4)[Fuc(a1-3)]GlcNAc(b1-2)Man(a1-3)[Fuc(a1-2)Gal(b1-4)[Fuc(a1-3)]GlcNAc(b1-2)Man(a1-6)]Man(b1-4)GlcNAc(b1-4)[Fuc(a1-6)]GlcNAc
# Procedure, shortened: as §1
# [10] = target: Fuc(a1-2)Gal(b1-4)[Fuc(a1-3)]GlcNAc(b1-2)[Fuc(a1-2)Gal(b1-4)[Fuc(a1-3)]GlcNAc(b1-4)]Man(a1-3)[Fuc(a1-2)Gal(b1-4)[Fuc(a1-3)]GlcNAc(b1-2)Man(a1-6)]Man(b1-4)GlcNAc(b1-4)GlcNAc
# Procedure, shortened: as §1
# [11] = target: Fuc(a1-2)Gal(b1-4)[Fuc(a1-3)]GlcNAc(b1-3)Gal(b1-4)[Fuc(a1-3)]GlcNAc
# Procedure, shortened: as §1
# [12] = target: Fuc(a1-2)Gal(b1-4)[Fuc(a1-3)]GlcNAc(b1-3)Gal(b1-4)[Fuc(a1-3)]GlcNAc(b1-3)Gal(b1-4)[Fuc(a1-3)]GlcNAc
# Procedure, shortened: as §1
# [13] = target: Fuc(a1-2)Gal(b1-4)[Fuc(a1-3)]GlcNAc(b1-3)GalNAc
# Procedure, shortened: as §1
# [14] = target: Fuc(a1-2)Gal(b1-4)[Fuc(a1-3)]GlcNAc(b1-3)[Neu5Ac(a2-6)Gal(b1-4)GlcNAc(b1-6)]Gal(b1-4)Glc
# Procedure, shortened: as §1
# [15] = target: Fuc(a1-2)Gal3S(b1-4)GlcNAc
# Procedure, shortened: as §1
# [16] = target: Fuc(a1-2)Gal6S(b1-3)GlcNAc
# Procedure, shortened: as §1
# [17] = target: Fuc(a1-2)Gal6S(b1-3)GlcNAc6S
# Procedure, shortened: as §1
# Fuc(a1-2)Gal6S(b1-4)Glc = target: Fuc(a1-2)Gal6S(b1-4)Glc
# Procedure, shortened: as §1
# [18] = target: Fuc(a1-2)Gal6S(b1-4)Glc6S
# Procedure, shortened: as §1
# Fuc(a1-2)[Gal(a1-3)]Gal = target: Fuc(a1-2)[Gal(a1-3)]Gal
# Procedure, shortened: as §1
# [19] = target: Fuc(a1-2)[Gal(a1-3)]Gal(b1-3)GalNAc
# Procedure, shortened: as §1
# [20] = target: Fuc(a1-2)[Gal(a1-3)]Gal(b1-3)GalNAc(b1-3)Gal(a1-4)Gal(b1-4)Glc
# Procedure, shortened: as §1
# [21] = target: Fuc(a1-2)[Gal(a1-3)]Gal(b1-3)GlcNAc
# Procedure, shortened: as §1
# [22] = target: Fuc(a1-2)[Gal(a1-3)]Gal(b1-3)GlcNAc(b1-2)Man(a1-3)[Fuc(a1-2)[Gal(a1-3)]Gal(b1-3)GlcNAc(b1-2)Man(a1-6)]Man(b1-4)GlcNAc(b1-4)GlcNAc
# Procedure, shortened: as §1
# [23] = target: Fuc(a1-2)[Gal(a1-3)]Gal(b1-3)GlcNAc(b1-2)Man(a1-3)[Fuc(a1-2)[Gal(a1-3)]Gal(b1-3)GlcNAc(b1-2)Man(a1-6)]Man(b1-4)GlcNAc(b1-4)[Fuc(a1-6)]GlcNAc
# Procedure, shortened: as §1
# [24] = target: Fuc(a1-2)[Gal(a1-3)]Gal(b1-3)GlcNAc(b1-3)GalNAc
# Procedure, shortened: as §1
# [25] = target: Fuc(a1-2)[Gal(a1-3)]Gal(b1-3)GlcNAc(b1-6)GalNAc
# Procedure, shortened: as §1
# [26] = target: Fuc(a1-2)[Gal(a1-3)]Gal(b1-4)Glc
# Procedure, shortened: as §1
# [27] = target: Fuc(a1-2)[Gal(a1-3)]Gal(b1-4)GlcNAc
# Procedure, shortened: as §1
# [28] = target: Fuc(a1-2)[Gal(a1-3)]Gal(b1-4)GlcNAc(b1-2)Man
# Procedure, shortened: as §1
binder,measurement,setting,value
"CFEM-CGl (Candida glabrata), Q6FRS0 (protein) VLATPPACLLACVAQVSKQSSQCHTLNQVGCFCENENTAIKNCLDSICPNGNSDAAYTAFKNSCGDVGKAVASV",glycan array binding signal (z-score),[1],-0.168
same,glycan array binding signal (z-score),[2],-0.407
same,glycan array binding signal (z-score),[3],8.8
same,glycan array binding signal (z-score),[4],-0.337
same,glycan array binding signal (z-score),[5],-0.397
same,glycan array binding signal (z-score),[6],0.206
same,glycan array binding signal (z-score),[7],-0.397
same,glycan array binding signal (z-score),[8],-0.149
same,glycan array binding signal (z-score),[9],-0.064
same,glycan array binding signal (z-score),[10],0.939
same,glycan array binding signal (z-score),[11],-0.324
same,glycan array binding signal (z-score),[12],-0.246
same,glycan array binding signal (z-score),[13],1.42
same,glycan array binding signal (z-score),[14],-0.389
same,glycan array binding signal (z-score),[15],-0.179
same,glycan array binding signal (z-score),[16],-0.239
same,glycan array binding signal (z-score),[17],0.54
same,glycan array binding signal (z-score),Fuc(a1-2)Gal6S(b1-4)Glc,-0.387
same,glycan array binding signal (z-score),[18],-0.073
same,glycan array binding signal (z-score),Fuc(a1-2)[Gal(a1-3)]Gal,-0.19
same,glycan array binding signal (z-score),[19],-0.235
same,glycan array binding signal (z-score),[20],-0.564
same,glycan array binding signal (z-score),[21],-0.304
same,glycan array binding signal (z-score),[22],-0.426
same,glycan array binding signal (z-score),[23],-0.457
same,glycan array binding signal (z-score),[24],-0.193
same,glycan array binding signal (z-score),[25],-0.471
same,glycan array binding signal (z-score),[26],-0.307
same,glycan array binding signal (z-score),[27],-0.145
same,glycan array binding signal (z-score),[28],-0.305

# Reference: the supplement of paper PMC8728848
